From PMC12820563
The other results are listed elsewhere or left out. The list includes weakly bound sequences.

Biological target: T1, MBP-FoxP3dN (UniProt Q99JB6)
T1 sequence: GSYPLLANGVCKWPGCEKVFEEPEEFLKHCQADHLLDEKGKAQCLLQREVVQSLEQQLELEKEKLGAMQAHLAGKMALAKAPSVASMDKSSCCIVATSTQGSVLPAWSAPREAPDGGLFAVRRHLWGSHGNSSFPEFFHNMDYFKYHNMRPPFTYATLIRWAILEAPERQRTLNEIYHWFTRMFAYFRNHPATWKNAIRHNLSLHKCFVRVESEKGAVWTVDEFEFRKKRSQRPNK
Test: PD-seq (MBP pull-down with sequencing)
Settings: 20 mM Tris-HCl pH 7.5, 100 mM NaCl, 1.5 mM MgCl2, 0.4 uM protein, 0.1 uM dsDNA library, 30 min, room temperature, amylose pull-down; high values mean tight binding; double strand, one strand shown

| Sequence | binding signal (RPM ratio (pull-down/input)) |
| --- | --- |
| GATGATTGTTCTCCCAGCTGATGAATTAGTACCTTCGAGTAAACAAATTTTCCTAATCTTTCTGTTCAAGCGCCATCTAC | 0.7 |
| GATGATTGTTCTCCCAGCTGATGAATTACTCTGCTCGAGTAAACAAATTTTCCTAATCTTTCTGTTCAAGCGCCATCTAC | 0.3 |
| GATGATTGTTCTCCCAGCTGATGAATTGGCCCCCTCGAGTAAACAAATTTTCCTAATCTTTCTGTTCAAGCGCCATCTAC | 0.311 |
| GATGATTGTTCTCCCAGCTGATGAATTCGAGGCTTCGAGTAAACAAATTTTCCTAATCTTTCTGTTCAAGCGCCATCTAC | 0.466 |
| GATGATTGTTCTCCCAGCTGATGAATTACAACAATCGAGTAAACAAATTTTCCTAATCTTTCTGTTCAAGCGCCATCTAC | 2.82 |
| GATGATTGTTCTCCCAGCTGATGAATTGATGGGTTCGAGTAAACAAATTTTCCTAATCTTTCTGTTCAAGCGCCATCTAC | 0.58 |
| GATGATTGTTCTCCCAGCTGATGAATTAGATTCATCGAGTAAACAAATTTTCCTAATCTTTCTGTTCAAGCGCCATCTAC | 0.555 |
| GATGATTGTTCTCCCAGCTGATGAATTACATGTCTCGAGTAAACAAATTTTCCTAATCTTTCTGTTCAAGCGCCATCTAC | 0.829 |
| GATGATTGTTCTCCCAGCTGATGAATTCGGGAAATCGAGTAAACAAATTTTCCTAATCTTTCTGTTCAAGCGCCATCTAC | 0.297 |
| GATGATTGTTCTCCCAGCTGATGAATTTGAGTAATCGAGTAAACAAATTTTCCTAATCTTTCTGTTCAAGCGCCATCTAC | 0.649 |
| GATGATTGTTCTCCCAGCTGATGAATTGGACGGATCGAGTAAACAAATTTTCCTAATCTTTCTGTTCAAGCGCCATCTAC | 0.179 |
| GATGATTGTTCTCCCAGCTGATGAATTTTAGGGTTCGAGTAAACAAATTTTCCTAATCTTTCTGTTCAAGCGCCATCTAC | 0.369 |
| GATGATTGTTCTCCCAGCTGATGAATTCTAGACTTCGAGTAAACAAATTTTCCTAATCTTTCTGTTCAAGCGCCATCTAC | 0.361 |
| GATGATTGTTCTCCCAGCTGATGAATTGTTGGGGTCGAGTAAACAAATTTTCCTAATCTTTCTGTTCAAGCGCCATCTAC | 1.79 |
| GATGATTGTTCTCCCAGCTGATGAATTGTTTTATTCGAGTAAACAAATTTTCCTAATCTTTCTGTTCAAGCGCCATCTAC | 1.66 |
| GATGATTGTTCTCCCAGCTGATGAATTACGTAATTCGAGTAAACAAATTTTCCTAATCTTTCTGTTCAAGCGCCATCTAC | 0.952 |
| GATGATTGTTCTCCCAGCTGATGAATTTCCCGAGTCGAGTAAACAAATTTTCCTAATCTTTCTGTTCAAGCGCCATCTAC | 0.171 |
| GATGATTGTTCTCCCAGCTGATGAATTATGATCATCGAGTAAACAAATTTTCCTAATCTTTCTGTTCAAGCGCCATCTAC | 0.762 |
